We go through 14 sequences from the supplement of paper PMC12645437, “Orthogonal IMiD-Degron Pairs Induce Selective Protein Degradation in Cells” (ACS Chemical Biology, 2025).

Some of the results follow.
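Note: jurkat cells carrying a lentiviral library of mutant zinc finger degrons fused to EGFP plus mCherry, mCherry+ cells FACS sorted, degron abundance counted by next-generation sequencing.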

The target of this experiment is no compound (DMSO). In words: log2 fold change of degron read counts, EGFP-low vs EGFP+ sorted cells; higher = lower degron-EGFP level without compound (poor expression or instability). The settings on record: compound: DMSO control; 18 h.
As to LECEICGFNCTQKGNLLRHIKL, the “log2 fold change of degron read counts” value came to 0.107.

Consider LNCNQCGFYCTQKGNLLRHIKL, for which the “log2 fold change of degron read counts” value is 1.78.

FQCNQCGATFTQKGNLLRHIKL: the “log2 fold change of degron read counts” value was -1.7.

With FRCEICGRKFTQKGNLLRHIKL, the “log2 fold change of degron read counts” value was -1.66.

Take FTCDQCGAPFTQKGNLLRHIKL: the “log2 fold change of degron read counts” value is -1.58.

Regarding FHCPICGREFTQKGNLLRHIKL, the “log2 fold change of degron read counts” value was -0.458.

For the sequence LECPICGFGCTQKGNLLRHIKL, the “log2 fold change of degron read counts” value worked out at 0.15.

With FRCEICGAQFTQKGNLLRHIKL, the “log2 fold change of degron read counts” value was -1.17.

Take FKCPICGAHFTQKGNLLRHIKL: the “log2 fold change of degron read counts” value is -0.507.

For the sequence FGCPQCGAAFTQKGNLLRHIKL, the “log2 fold change of degron read counts” value was -1.04.

Take FACEQCGAQFTQKGNLLRHIKL: the “log2 fold change of degron read counts” value was -1.66.

Consider FKCNQCGRIFTQKGNLLRHIKL, for which the “log2 fold change of degron read counts” value stood at 0.137.

As to FACPICGAWFTQKGNLLRHIKL, the “log2 fold change of degron read counts” value is 0.912.

With LTCPICGFECTQKGNLLRHIKL, the “log2 fold change of degron read counts” value is -0.0387.
